# Reference: PubChem BioAssay (NCATS)
# “And” between values parts separate entries of the source, which are not always exact repeats. Equal values may be shown once. The inconclusive results got no clear call from the source; some entries with a clear call stand among them for comparison. Potencies of inconclusive entries are doubtful fits and often do not repeat. The source made the active and inactive calls. Calls follow the shape of the dose curve; as a rule, active = well fitted curve in the direction sought with a large enough effect; inconclusive = small, poorly fitted or top-dose-only effect, or another doubt; inactive = no such curve, though single readings can be large; an effect the other way counts as inactive or inconclusive.
# Legend:
# [1] = target: Cellular tumor antigen p53 (Homo sapiens) (UniProt P04637); test: Primary qHTS for small molecule compounds that upregulate eGFP-tagged delta133p53alpha (in N-terminal) cells. (AID 2060322); settings: NCI-H358 eGFP-delta133p53alpha fluorescence, 24 h; activation: hits give high values; also: nearly all actives have a fitted effect of over 75% in size;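 as to activation: 0% = DMSO vehicle and 100% = reference activator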
# How it was run: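 NCI-H358 cells pre-induced 24 h with 10 ng/ml doxycycline to express N-terminal eGFP-delta133p53alpha, then dosed 24 h at 37C without doxycycline; fixed, Hoechst-stained, GFP intensity by laser scanning cytometry, normalized to DMSO (0%) and 57.5 uM 5-azacytidine (100%).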
# [2] = BET inhibitor-based combinations targeting novel dependencies in MECOM-rearranged (r) AML: OCI-AML3 cell line (AID 2202232); settings: CellTiter-Glo luminescence, 48 h; Potency: OCI-AML3 viability; viability (% of control): at 46 µM (top of the series); also: nearly all actives have a fitted effect of over 35% in size;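 as to viability (% of control): plate controls were DMSO vehicle wells for no effect and wells without cells for full effect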
# How it was run: (§1)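 Viability of cells (500 per well) is scored by luminescent CellTiter-Glo at 48 hr post-dosing. Eleven-point titrations are normalized to DMSO and empty controls and reduced to AUC values.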
# [3] = BET inhibitor-based combinations targeting novel dependencies in MECOM-rearranged (r) AML: AML-191 cell line (AID 2202236; also: nearly all actives have a fitted effect of over 35% in size)
# How it was run: as §1
# [4] = BET inhibitor-based combinations targeting novel dependencies in MECOM-rearranged (r) AML: HNT-34 cell line (AID 2202234); also: nearly all actives have a fitted effect of over 35% in size;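 as to viability (% of control): plate controls were vehicle wells for no effect and cell-free wells for full effect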
# How it was run: (§2)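 Using pin-tool transfer, drugs were added in 11 doses to cells (500/well), incubated 48 hr, and assessed with CellTiter-Glo. Z-AUC is a mean-centring transformation applied separately to each screened line.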
# [5] = BET inhibitor-based combinations targeting novel dependencies in MECOM-rearranged (r) AML: AML-194 cell line (AID 2202237; also: nearly all actives have a fitted effect of over 40% in size;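 as to viability (% of control): plate controls were vehicle wells for no effect and wells without cells for full effect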)
# How it was run: as §1
# [6] = BET inhibitor-based combinations targeting novel dependencies in MECOM-rearranged (r) AML: UCSD-AML1 cell line (AID 2202235); settings: UCSD-AML1 AML cells viability, CellTiter-Glo, 48 h; viability (% of control): at 46 µM (top of the series); also: nearly all actives have a fitted effect of over 40% in size;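 as to viability (% of control): plate controls were DMSO vehicle wells for no effect and blank wells for full effect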
# How it was run: as §2
# Potency is read from the fitted curve at half-maximal effect; tags tell the direction and shape of the fitted curve.
# UniProt P04637, sequence (P04637 whole entry, looked up): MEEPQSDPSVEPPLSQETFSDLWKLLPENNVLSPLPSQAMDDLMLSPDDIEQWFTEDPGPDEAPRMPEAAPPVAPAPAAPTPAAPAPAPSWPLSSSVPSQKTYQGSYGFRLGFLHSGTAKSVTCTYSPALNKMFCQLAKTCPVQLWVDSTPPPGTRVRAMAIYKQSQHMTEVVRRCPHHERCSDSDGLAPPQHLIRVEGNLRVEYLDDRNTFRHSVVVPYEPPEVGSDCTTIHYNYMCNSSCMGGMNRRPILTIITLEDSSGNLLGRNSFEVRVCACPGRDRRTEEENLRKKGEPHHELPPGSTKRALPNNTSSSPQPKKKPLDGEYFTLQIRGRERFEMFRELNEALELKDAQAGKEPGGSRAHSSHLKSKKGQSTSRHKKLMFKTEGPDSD
structure (smiles),measurement,setting,value
CCCCc1oc2ccc(NS(C)(=O)=O)cc2c1C(=O)c1ccc(OCCCN(CCCC)CCCC)cc1,Potency,[1],"inconclusive: 2.76 µM [activator, full curve, poor fit] and inconclusive: 37.9 µM [activator, single point]"
same,Potency,[2],active: 14.8 µM
same,Potency,[3],active: 10.5 µM
COc1ncc(-c2ccc3nccc(-c4ccnnc4)c3c2)cc1NS(=O)(=O)c1ccc(F)cc1F,Potency,[1],"inconclusive: 3.4 nM [activator, full curve, poor fit] and inconclusive: 5.4 nM [activator, full curve, poor fit]"
same,Potency,[2],active: 0.0833 µM
same,Potency,[4],active: 0.263 µM
same,Potency,[5],"inconclusive: 0.118 µM [inhibitor, full curve]"
CCc1c2c(nc3ccc(OC(=O)N4CCC(N5CCCCC5)CC4)cc13)-c1cc3c(c(=O)n1C2)COC(=O)[C@]3(O)CC,Potency,[1],"inconclusive: 43.2 µM [activator, single point]"
same,Potency,[2],active: 0.186 µM
same,Potency,[5],active: 0.332 µM
COc1cc2c(N3CCN(C(=O)Nc4ccc(OC(C)C)cc4)CC3)ncnc2cc1OCCCN1CCCCC1,Potency,[1],"inconclusive: 17.4 µM [activator, single point]"
same,Potency,[2],"inconclusive: 14.8 µM [inhibitor, partial curve, poor fit]"
same,Potency,[4],"inconclusive: 26.3 µM [inhibitor, partial curve]"
same,Potency,[3],"inconclusive: 16.6 µM [inhibitor, partial curve]"
C[C@@]12O[C@@H](C[C@]1(O)CO)n1c3ccccc3c3c4c(c5c6ccccc6n2c5c31)CNC4=O,Potency,[1],"inconclusive: 34.3 µM [activator, single point]"
same,Potency,[2],active: 0.417 µM
same,Potency,[4],"inconclusive: 0.0525 µM [inhibitor, full curve]"
same,Potency,[3],active: 0.0525 µM
same,Potency,[5],"inconclusive: 0.0661 µM [inhibitor, full curve, poor fit]"
O=C(O)C1(Cc2cccc(Nc3nccs3)n2)CCC(Oc2cccc(Cl)c2F)CC1 (stereo not drawn),Potency,[1],"inconclusive: 6.85 µM [activator, partial curve, poor fit] and inconclusive: 86.2 nM [activator, full curve]"
same,Potency,[2],active: 0.662 µM
same,Potency,[6],"inconclusive: 0.525 µM [inhibitor, full curve]"
same,Potency,[3],"inconclusive: 1.05 µM [inhibitor, full curve]"
same,Potency,[5],"inconclusive: 2.95 µM [inhibitor, full curve]"
COC(=O)[C@H](CCCN=C(N)N)NS(=O)(=O)c1ccc(C)cc1,Potency,[1],"inconclusive: 21.7 µM [activator, single point]"
same,Potency,[2],"inconclusive: 0.0019 µM [inhibitor, full curve, poor fit]"
same,Potency,[4],inactive
same,Potency,[5],inactive
CN(c1ncccc1CNc1nc(Nc2ccc3c(c2)CC(=O)N3)ncc1C(F)(F)F)S(C)(=O)=O,Potency,[1],active: 24.3 µM
same,Potency,[2],active: 6.61 µM
same,Potency,[5],"inconclusive: 5.9 µM [inhibitor, full curve, poor fit]"
CCCC1(CCC)CCC2(CCN(CCCN(CC)CC)C2)CC1,Potency,[1],"inconclusive: 23.9 µM [activator, single point]"
same,Potency,[2],active: 7.42 µM
same,Potency,[3],active: 9.34 µM
O=C(O)c1cn(C2CC2)c2cc(N3CCNCC3)c(F)cc2c1=O,activation,[1],inconclusive: -36.8% [activator]
same,viability (% of control),[2],inactive: 109% [at 8.46 µM]
same,viability (% of control),[6],inactive: 101% [at 8.46 µM]
N=C(N)c1ccc2cc(OC(=O)c3ccc(N=C(N)N)cc3)ccc2c1,Potency,[1],"inconclusive: 2.19 µM [activator, partial curve, poor fit]"
same,Potency,[2],"inconclusive: 16.6 µM [inhibitor, partial curve, poor fit]"
same,Potency,[4],"inconclusive: 20.9 µM [inhibitor, partial curve, poor fit]"
same,Potency,[5],"inconclusive: 18.6 µM [inhibitor, partial curve, poor fit]"
CNNCc1ccc(C(=O)NC(C)C)cc1,Potency,[1],"inconclusive: 0.0014 µM [activator, full curve, poor fit]"
same,Potency,[2],inactive
same,Potency,[6],inactive
CCOC(=O)[C@@]1(CCCCCCOc2ccc(Cl)cc2)CO1,Potency,[1],"inconclusive: 13.6 µM [activator, single point]"
same,Potency,[2],"inconclusive: 29.5 µM [inhibitor, partial curve, poor fit]"
same,Potency,[4],"inconclusive: 23.5 µM [inhibitor, partial curve, poor fit]"
same,Potency,[3],"inconclusive: 18.6 µM [inhibitor, partial curve, poor fit]"
